Source: article PMC6919601, “Identification of Plasmodium dipeptidyl aminopeptidase allosteric inhibitors by high throughput screening” (PLoS ONE, 2019)
Hit rate of the full screen: of about 110,000 compounds, about 230 (0.21%) showed an effect of 50% or more. This is one part of the list.

target: DPAP1 (Plasmodium falciparum, UniProt Q8IIJ9); experiment: primary screen, percent inhibition; read by cleavage of a fluorogenic dipeptide substrate; higher = more effect of the substance; set-up: species or system P. falciparum D10 trophozoite lysates; single well
Sequence (Q8IIJ9 whole entry, looked up): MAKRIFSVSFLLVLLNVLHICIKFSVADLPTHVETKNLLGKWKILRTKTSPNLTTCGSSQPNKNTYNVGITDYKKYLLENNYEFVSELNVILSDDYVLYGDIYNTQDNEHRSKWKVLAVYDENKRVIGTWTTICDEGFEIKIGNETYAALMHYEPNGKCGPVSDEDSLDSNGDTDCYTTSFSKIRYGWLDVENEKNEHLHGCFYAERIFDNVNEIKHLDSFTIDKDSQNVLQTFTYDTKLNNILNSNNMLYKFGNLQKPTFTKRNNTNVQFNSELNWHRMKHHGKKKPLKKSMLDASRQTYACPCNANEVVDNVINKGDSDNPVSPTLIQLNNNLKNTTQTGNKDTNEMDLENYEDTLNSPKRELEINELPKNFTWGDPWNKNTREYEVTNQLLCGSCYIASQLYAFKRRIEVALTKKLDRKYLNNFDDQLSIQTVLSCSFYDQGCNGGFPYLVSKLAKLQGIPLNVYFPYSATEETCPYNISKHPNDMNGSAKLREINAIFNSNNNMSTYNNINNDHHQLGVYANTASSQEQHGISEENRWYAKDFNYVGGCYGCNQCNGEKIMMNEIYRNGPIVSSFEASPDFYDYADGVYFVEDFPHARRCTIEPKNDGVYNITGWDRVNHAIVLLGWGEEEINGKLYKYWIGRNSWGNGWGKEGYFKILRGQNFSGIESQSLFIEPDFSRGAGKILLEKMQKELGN
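Note: 30 min substrate incubation versus DMSO and 10 µM JCP410 controls.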

Row | SMILES | % Inhibition @ 10 uM
1 | CCOC(=O)c1c(C)[nH]c(C)c1S(=O)(=O)N(C)CC(=O)NCc1ccc2c(c1)OCO2 | 0.359%
2 | O=C(NCCSc1nnnn1-c1ccccc1)c1ccc(Cl)cc1Cl | -1.11%
3 | COc1c(Cl)cc(Cl)cc1-c1nnc2ccc3ccccc3n12 | 1.13%
4 | COc1ccccc1OCc1cccc(C(=O)N2N=C(C(F)F)CC2(O)C(F)F)c1 (stereo not drawn) | -4.72%
5 | COc1ccc(Br)cc1S(=O)(=O)NC1CC(C)(C)NC(C)(C)C1 | -4.02%
6 | CCn1nccc1C(=O)Nc1ccn(Cc2c(F)c(F)cc(F)c2F)n1 | 0.385%
7 | CCn1c(O)c(C2=NCCCCC2)c2ccccc21 | 0.266%
8 | N#CCNC(=O)[C@H](CSCc1ccccc1)NC(=O)c1cc2ccccc2o1 | -6.98%
9 | O=S(=O)(Nc1ccc(S(=O)(=O)Nc2cccc3ccccc23)cc1)c1ccc(Cl)cc1 | 7.71%
10 | COc1cc(OC)cc(C(=O)NC2CCC(NC(=O)c3cc(OC)cc(OC)c3)CC2)c1 (stereo not drawn) | -5.6%
11 | COC(=O)c1c(C)oc2ccc(OCc3cccc(F)c3)cc12 | 3.04%
12 | O=Cc1cn(CC(=O)N2CCCC2)c2ccccc12 | 2.35%
13 | CCOc1cccc(C(=O)Nc2nn3c(-c4ccccc4C)nnc3s2)c1 | -3.73%
14 | CCc1ccc(OCC(=O)Nc2ccc(S(=O)(=O)Nc3cc(C)on3)cc2)c(Br)c1 | 11.6%
15 | CN(CCCNS(=O)(=O)c1ccc(-c2cc(C(F)(F)F)no2)s1)Cc1ccccc1 | -0.342%
16 | COc1ccc(/C=N/c2sc3c(c2C#N)CCC(C)C3)cc1OC (stereo not drawn) | -0.597%
17 | CCC[C@H](NC(=O)C1(NC(=O)OC(C)(C)C)CCCCC1)C(=O)c1nnc(-c2ccco2)o1 | -6.46%
18 | CCOC(=O)N1CCN(C(=O)c2cn(C)c(=O)c3c2c2ccccc2n3C)CC1 | 4.5%
19 | Cc1ccc(CS(=O)(=O)CCC(=O)NCCN(C)Cc2ccccc2)cc1 | 1.62%
20 | CC1=NN(C(=O)c2ccccc2N)C(O)(c2ccccc2)C1 (stereo not drawn) | -3.04%

Row | SMILES | % Inhibition @ 10 uM
21 | CCOC(=O)c1c(C)[nH]c(C)c1S(=O)(=O)N1CCN(C(=O)OCC)CC1 | -1.06%
22 | O=C(NCc1ccccc1Cl)C1=CSCCO1 | 0.0882%
23 | COc1ccc(Br)cc1/C=c1/sc2nc(=O)c(Cc3ccc(F)cc3)nn2c1=O | 1.23%
24 | CCCCP(=O)(O)c1ccccc1 | -0.771%
25 | CCOC(=O)N1CCN(Cc2nc3c(c(=O)n(C)c(=O)n3C)n2CCC(C)C)CC1 | -5.1%
26 | COC(=O)/C=C/c1ccc(OC)c(OC)c1 | 3.39%
27 | Cc1ccc(C(=O)Nc2cccc3cccnc23)cc1 | -4.02%
28 | c1ccc(Cc2nc3sc4c(c3c3nnnn23)CCCC4)cc1 | 1.52%
29 | COC(=O)c1ccc(OCC2c3cc(OC)c(OC)cc3CCN2C(=O)CCc2ccccc2)cc1 (stereo not drawn) | 1.02%
30 | CC(NC(=O)COc1nsnc1N1CCOCC1)c1ccccc1 (stereo not drawn) | 2.99%
31 | CC(C)CCn1c(CN2CCN(Cc3ccccc3)CC2)nc2c1c(=O)n(C)c(=O)n2C | 0.317%
32 | CN1C(=O)c2ccccc2C(C(=O)N2CCCCCC2)C1c1c[nH]c2ccccc12 (stereo not drawn) | 2.93%
33 | CCOC(=O)c1cc(-c2ccccc2)sc1NC(=O)/C(C#N)=C/c1ccc(OC)cc1 | -2.87%
34 | CCN1CCC(NCC2CCCO2)CC1 (stereo not drawn) | -1.81%
35 | O=C(c1oc(=O)c2ccccc2c1-c1ccccc1)N1CCCCCC1 | 3.53%
36 | CCCCN(C)C(=O)C1c2ccccc2C(=O)N(CCOC)C1c1c[nH]c2ccccc12 (stereo not drawn) | 5.62%
37 | C=CCNC(=O)c1cc(-c2ccc(OCC)cc2)nc2ccccc12 | 0.0265%
38 | O=C(Nc1ccc(Cl)cc1C(=O)NCCCCO)c1ccco1 | -5.31%
39 | N=C1/C(=C\c2ccc(SCc3ccco3)o2)C(=O)N=C2SC(c3ccccc3)=NN12 | 11.2%
40 | COc1cccc(OCc2cc(C3C(C#N)=C(N)OC4=C3C(=O)CC(C)(C)C4)ccc2OC)c1 (stereo not drawn) | 1.35%

Row | SMILES | % Inhibition @ 10 uM
41 | COc1ccc(-c2cc(C(F)(F)F)nc(SCC(=O)Nc3cccnc3)n2)cc1OC | 44.1%
42 | COC(=O)c1ccc(CSc2ncnc3c2sc2nc(N4CCOCC4)c4c(c23)CCCC4)o1 | 1.31%
43 | O=C1CC(c2ccc(Cl)cc2Cl)C2=C(CC(c3ccccc3Cl)CC2=O)N1 (stereo not drawn) | 6.91%
44 | COc1ccc(/C=C(\NC(=O)c2ccc(OC)cc2)C(=O)NC(C)C(=O)O)cc1 (stereo not drawn) | -2.87%
45 | O=C(c1ccc2nc(N3CCOCC3)sc2c1)N1CCN(C(=O)c2ccco2)CC1 | 1.03%
46 | O=C(C1=C(O)C(=O)N(c2ccccc2)C1c1ccc2c(c1)OCO2)c1ccccc1 (stereo not drawn) | 2.22%
47 | NC(=O)c1c(NC(=O)c2ccc3c(c2)OCO3)sc2c1CCCCCC2 | 0.316%
48 | COc1ccc2nc(NC(=O)C(Cc3ccccc3)N3C(=O)c4ccccc4C3=O)sc2c1 (stereo not drawn) | -3.14%
49 | Cc1ccc(Nc2[nH]nc(C)c2[N+](=O)[O-])c(C)c1 | 3.31%
50 | COc1ccc(N2C(=N)S/C(=C\c3ccc(-c4ccc5c(c4)C(=O)NC5=O)o3)C2=O)cc1 | 0.147%
51 | CN1CCN(S(=O)(=O)c2ccc(-c3ccc(Cl)cc3)cc2)CC1 | -0.123%
52 | COCCNC(=S)N(CCc1c(C)[nH]c2ccc(F)cc12)Cc1cc(OC)c(OC)c(OC)c1 | -0.58%
53 | CC(=O)C(C(=O)c1ccccc1)C1c2ccccc2Oc2ccccc21 (stereo not drawn) | 0.685%
54 | COc1ccc(/C=C2/SC(=O)N(CC(=O)NC(C)(C)C)C2=O)cc1OC | -2.99%
55 | O=S(=O)(NCCCN1CCOCC1)c1cc(Br)c(Br)s1 | -0.458%
56 | CCOc1cc(-c2nc3c(=O)n(C)c(=O)nc-3n(C)n2)ccc1OC(C)C | -6.5%
57 | CC1(C)OC(=O)C(=Cc2ccc(-c3ccccc3)o2)C(=O)O1 | 3.25%
58 | O=S(=O)(c1ccc(Cl)cc1Br)N1CCOCC1 | 4.38%
59 | CCN(c1cccc(C)c1)S(=O)(=O)c1cnc(Cl)c(Br)c1 | 3.24%
60 | CSc1ncc(C(=O)NCCCN2CCc3ccccc3C2)c(C)n1 | 2.25%
